# In PubChem BioAssay AID588342 (National Center for Advancing Translational Sciences (NCATS), 2011):
# Screen size: about 360,000 compounds; about 25,000 (6.9%) were called active. The shares of active, inactive and inconclusive entries below differ from those in the screen. Calls come from the whole dose curve; as a rule, active = well fitted inhibition curve with a large enough effect; inconclusive = small, poorly fitted or top-dose-only effect; inactive = flat fitted curve, though single readings scatter. Where the call is inconclusive, the potency comes from a doubtful curve fit.
# Target: Luciferin 4-monooxygenase (Photinus pyralis) (UniProt P08659)
# Chain of UniProt P08659 (P08659 whole entry, looked up): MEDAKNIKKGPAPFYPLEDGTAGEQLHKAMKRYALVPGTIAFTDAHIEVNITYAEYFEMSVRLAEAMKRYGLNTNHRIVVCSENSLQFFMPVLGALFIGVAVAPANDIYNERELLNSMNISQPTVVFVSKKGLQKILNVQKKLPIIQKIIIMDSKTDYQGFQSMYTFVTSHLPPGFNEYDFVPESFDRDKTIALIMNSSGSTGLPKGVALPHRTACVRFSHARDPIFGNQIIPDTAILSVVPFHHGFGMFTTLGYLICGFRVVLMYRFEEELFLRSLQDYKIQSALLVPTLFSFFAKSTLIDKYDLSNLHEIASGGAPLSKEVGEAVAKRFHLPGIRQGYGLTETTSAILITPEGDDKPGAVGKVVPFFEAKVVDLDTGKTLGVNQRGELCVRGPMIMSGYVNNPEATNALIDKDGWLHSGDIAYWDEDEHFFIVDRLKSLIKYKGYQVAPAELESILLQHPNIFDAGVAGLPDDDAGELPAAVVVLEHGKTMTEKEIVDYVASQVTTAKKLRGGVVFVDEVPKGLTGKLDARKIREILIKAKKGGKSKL
# Assay: qHTS profiling assay for firefly luciferase inhibitor/activator using purifed enzyme and Km concentrations of substrates (counterscreen for miR-21 project); note: nearly all actives have a fitted effect of over 55% in size
# Details: purified FLuc, luminescence inhibition; series mostly up to 57.5 µM
# Method in brief: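 Purified P. pyralis luciferase (10nM final) with 10uM D-luciferin and 10uM ATP (Km levels) in 50mM Tris acetate pH 7.5, 10mM Mg acetate, 0.01% Tween-20, 0.05% BSA; qHTS 6-point titration, ~60 µM downward; luminescence read.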
# Potency is the fitted concentration of half-maximal effect; tags give direction and shape of the fitted curve.
row,Structure (SMILES),Potency
1,CC(=O)c1sc(NC(=O)C2COc3ccccc3O2)nc1C (configuration not stated),active: 1.9 µM
2,CC(C)c1ccc(-c2nnn(CCC(=O)O)n2)cc1,active: 9.53 µM
3,CCc1nnc2c(NCc3cccc(OC)c3)nc3ccccc3n12,inactive
4,COc1cccc(NC(=O)c2oc3ccccc3c2NC(=O)c2ccc(OC(C)C)cc2)c1,active: 2.69 µM
5,CCc1ccc2c(Cl)c(C(=O)N/N=C/c3c[nH]c4ccccc34)sc2c1,active: 19 µM
6,CCCN1CCC(=O)N(CCSc2ccc(C)cc2)CC1,"inconclusive: 23.9 µM [inhibitor, single point]"
7,CCc1cccc2c(C(=O)COC(=O)c3c(C)noc3C)c[nH]c12,"inconclusive: 1.9 µM [inhibitor, partial curve, poor fit]"
8,Cn1cccc1C(=O)N/N=C/c1c(Cl)cccc1Cl,active: 10.7 µM
9,Cc1nc(NC(=S)NC(=O)c2cccs2)sc1C(=O)N(C)C,"inconclusive: 26.9 µM [inhibitor, single point]"
10,Cc1cc(CNC(=O)CCc2nnc(CCCc3ccccc3)o2)nn1C,"inconclusive: 37.9 µM [inhibitor, single point]"
11,O=C(c1cc(-c2ccccc2)nc2ccccc12)N1CCc2ccccc2C1,"inconclusive: 26.9 µM [inhibitor, single point]"
12,COc1ccc2c(CNCCc3ccco3)c(C(=O)O)n(Cc3ccc(F)cc3)c2c1,inactive
13,CCCc1cc(=O)n2[nH]c(-c3ccc(Br)cc3)cc2n1,"inconclusive: 21.3 µM [inhibitor, partial curve]"
14,Cc1ccc(NC(=O)CSc2nc(O)c(Cc3ccccc3)c(=O)n2-c2ccccc2)cc1,"inconclusive: 23.9 µM [inhibitor, partial curve, poor fit]"
15,CCCn1c(NCc2c[nH]c3ccccc23)nc2ccccc21,"inconclusive: 26.9 µM [inhibitor, single point]"
16,CC(C)c1c(C(=O)N/N=C/c2cccc3ccccc23)nnn1-c1nonc1N,"inconclusive: 23.9 µM [inhibitor, single point]"
17,COc1cc(C)c(CN2CCN(C(C)C(=O)NC(C)c3ccccc3)CC2)cc1OC (configuration not stated),inactive
18,COC(=O)c1cc(CN2CCN(c3ccccc3C)CC2)ccc1O,inactive
19,COc1cccc(C(=O)NCCc2sc(-c3cccc(C)c3)nc2C)c1,"inconclusive: 21.3 µM [inhibitor, partial curve, poor fit]"
20,Cc1ccc(-c2cc(C(=O)N3CC(C)OC(C)C3)c3ccccc3n2)o1 (configuration not stated),active: 10.7 µM
21,Cc1ccc(Nc2nc(CSc3nnc(-c4ccccc4)n3C)cs2)cc1,active: 1.2 µM
22,Cc1ccc(S(=O)(=O)CCC(=O)OCC(=O)c2ccc(C)c(C)c2)cc1,"inconclusive: 26.9 µM [inhibitor, partial curve, poor fit]"
23,COc1ccc(NC(=O)c2c(Cl)nc3ccccn23)cc1,"inconclusive: 23.9 µM [inhibitor, single point]"
24,O=C(NN=C1CCCC1)c1sc2ccccc2c1Cl,"inconclusive: 19 µM [inhibitor, partial curve]"

row,Structure (SMILES),Potency
1,O=C(NC(=O)c1ccccc1)Nc1ccc(Cl)cn1,active: 2.13 µM
2,O=C(Nc1cc(S(=O)(=O)N2CCOCC2)ccc1N1CCCC1)c1ccc(F)cc1,"inconclusive: 23.9 µM [inhibitor, partial curve, poor fit]"
3,NC(=O)CN1C(=O)/C(=c2\sc3nc(=O)c(Cc4ccccc4)nn3c2=O)c2ccccc21,"inconclusive: 37.9 µM [inhibitor, partial curve, poor fit]"
4,Cc1cc(C)c(NC(=S)N2CCCC2C(=O)O)c(C)c1 (configuration not stated),"inconclusive: 37.9 µM [inhibitor, single point]"
5,Cc1ccc(S(=O)(=O)N2CCN(C(=O)CNC(=O)c3sc4ccccc4c3Cl)CC2)cc1,inactive
6,O=C(CSc1ccc(-c2ccc(Cl)cc2)nn1)Nc1ccc2c(c1)OCCO2,"inconclusive: 2.69 µM [inhibitor, full curve]"
7,O=C(CCNc1n[nH]c(=O)[nH]c1=O)N/N=C\c1ccc(Br)cc1,"inconclusive: 37.9 µM [inhibitor, partial curve, poor fit]"
8,Cc1ccc(C(=O)Nc2nc(-c3ccco3)c(-c3ccco3)s2)o1,"inconclusive: 21.3 µM [inhibitor, single point]"
9,CCc1nnc(NS(=O)(=O)c2ccc(NC(=S)NC(=O)c3cccnc3)cc2)s1,"inconclusive: 12 µM [inhibitor, partial curve, poor fit]"
10,C=CCc1ccc2oc(C(=O)OCC)cc(=O)c2c1O,"inconclusive: 10.7 µM [inhibitor, partial curve]"
11,Cc1cc(Oc2nc3ccccn3c(=O)c2/C=C(\C#N)c2nc3ccccc3s2)ccc1Cl,"inconclusive: 21.3 µM [inhibitor, partial curve, poor fit]"
12,Cc1c(-c2nc3ccccc3[nH]2)cnn1C,"inconclusive: 26.9 µM [inhibitor, single point]"
13,Cc1ccc(C[C@H](C(=O)O)N2C(=O)c3ccc(C(=O)O)cc3C2=O)c(C)c1,"inconclusive: 3.79 µM [inhibitor, partial curve, poor fit]"
14,C(=N\Nc1nc(N2CCOCC2)nc(N2CCOCC2)n1)/c1ccncc1,"inconclusive: 6.75 µM [inhibitor, single point]"
15,N/C(=N\OC(=O)/C=C/c1ccc(Br)cc1)c1ccccn1,active: 9.53 µM
16,Cc1ccc(S(=O)(=O)N2CCOCC2)cc1N/N=C(\C#N)c1nc2ccccc2[nH]1,inactive
17,CCCC(CCC(=O)Nc1cc([N+](=O)[O-])ccc1O)C(=O)O (configuration not stated),"inconclusive: 19 µM [inhibitor, partial curve, poor fit]"
18,COc1cccc(/C=C/C(=O)N2CCN(c3ccccn3)CC2)c1,"inconclusive: 21.3 µM [inhibitor, single point]"
19,COc1ccc(CC(=O)c2ccc(O)cc2O)cc1,"inconclusive: 21.3 µM [inhibitor, single point]"
20,O=C(/C=C/NNC(=O)c1ccccc1)c1ccc(Br)cc1,active: 26.9 µM
21,O=C(O)c1cc(-c2ccc(Br)s2)nc2ccccc12,active: 8.49 µM
22,O=C(Nc1cccc(S(=O)(=O)N2CCCCC2)c1)c1ccc(OCC2CCCO2)cc1 (configuration not stated),active: 15.1 µM
23,Cc1ccc(C(=O)CSc2nc(-c3ccccc3)nc3c2CCCC3)cc1C,inactive
24,CC(=O)N1CCN(c2ccc(NC(=S)NC(=O)c3ccc(C)c([N+](=O)[O-])c3)cc2)CC1,inactive

row,Structure (SMILES),Potency
1,CC(C)(C)C(=O)Nc1ccc2nc(SCc3ccccc3)sc2c1,"inconclusive: 13.5 µM [inhibitor, partial curve]"
2,CC(C)(C)C1CCC(OC(=O)c2ccncc2)CC1 (configuration not stated),"inconclusive: 23.9 µM [inhibitor, partial curve, poor fit]"
3,COc1ccc2cc(CNc3ccccc3)c(=O)n(CC(=O)Nc3ccc(C(C)=O)cc3)c2c1,inactive
4,COc1ccccc1N1CCN(/N=C\c2sccc2C)CC1,"inconclusive: 21.3 µM [inhibitor, partial curve]"
5,COc1ccc(-c2cn3nc(N4CCCC(C(=O)NCCCOC(C)C)C4)sc3n2)cc1 (configuration not stated),"inconclusive: 15.1 µM [inhibitor, partial curve]"
6,COc1ccc(C(=O)Nc2cccc(OC(=O)c3ccc(C)c(C)c3)c2)cc1,active: 10.7 µM
7,Cc1nc(-c2ccncc2)sc1C(=O)Nc1ccc(Br)cc1,inactive
8,O=C1NC(=Nc2ccccc2Cl)S/C1=C\c1ccc(C(=O)O)cc1,"inconclusive: 37.9 µM [inhibitor, single point]"
9,O=C(NCCCN1CCCC1=O)c1cccc(S(=O)(=O)Nc2ccc(Br)cc2)c1,inactive
10,Cc1ccc(Cl)cc1NC(=O)C(NS(=O)(=O)c1ccc2c(c1)CCC(=O)N2)c1ccccc1 (configuration not stated),inactive
11,O=C(c1cc(-c2cccc(Cl)c2)nc2ccccc12)N1CCCC1,active: 16.9 µM
12,COc1ccc(NC(=O)CN2C(=O)NC3(CCCC3)C2=O)cc1,inactive
13,Cc1ccc(N=Nc2c(N)n[nH]c2N)cc1,active: 15.1 µM
14,Cc1ccc(NC(=O)CC2Nc3ccccc3NC2=O)cc1Cl (configuration not stated),active: 23.9 µM
15,COc1ccc(OC)c(C(=O)COC(=O)COc2ccccc2F)c1,inactive
16,COC(=O)c1c(SCC(=O)Nc2ccccc2C(F)(F)F)[nH]c2ccc(Cl)cc2c1=O,"inconclusive: 12 µM [inhibitor, partial curve]"
17,CC1(C)C(CSc2nc3ccccc3[nH]2)C1(Cl)Cl (configuration not stated),"inconclusive: 26.9 µM [inhibitor, single point]"
18,CC(C)c1ccc(/C=C/C(=O)Nc2nn[nH]n2)cc1,"inconclusive: 16.9 µM [inhibitor, partial curve]"
19,CCOc1ccccc1NC(=O)Nc1ccc(CC#N)cc1,"inconclusive: 23.9 µM [inhibitor, single point]"
20,CC(C)S(=O)(=O)c1cnc(-c2ccccn2)nc1N,"inconclusive: 37.9 µM [inhibitor, partial curve, poor fit]"
21,COc1ccc2nc(SCC(=O)Nc3ccc(S(=O)(=O)Nc4onc(C)c4C)cc3)[nH]c2c1,"inconclusive: 37.9 µM [inhibitor, single point]"
22,Nc1c(-c2ccccc2)cnn1-c1ccc(C(=O)O)cc1,active: 1.69 µM
23,c1ccc(Cn2c(-c3ccccc3)nc3nc4ccccc4nc32)cc1,inactive
24,Cc1ccc(/C=C2\SC(=S)N(/N=C/c3cc([N+](=O)[O-])ccc3O)C2=O)o1,active: 23.9 µM
